In the supplement of paper PMC9938546:
Where a name gives a salt, the structure may show the parent alone. This is one part of the list. Many values rest on one well or one pass, so single values are uncertain.

tested on: HCT116-GFP; assay: HCT116-GFP viability (GFP intensity) relative to untreated control, monoculture; higher = less cancer cell killing; conditions: culture: HCT116-GFP monoculture; 10 µM; 72 h
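Also: viability estimated indirectly by image-based GFP quantification with live-cell imaging of the constitutively GFP-expressing human colorectal cancer line, no immune cells added.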

SMILES | HCT116-GFP viability [%]
CCCCc1oc2ccccc2c1C(=O)c1cc(I)c(OCCN(CC)CC)c(I)c1 [Amiodarone hydrochloride] | 65.1
O=C(O)c1cccnc1 [Niacin] | 95.8
Cc1cccc(N(C)C(=S)Oc2ccc3ccccc3c2)c1 [Tolnaftate] | 101
O=c1[nH]c(=O)n([C@H]2C[C@H](O)[C@@H](CO)O2)cc1I [Idoxuridine] | 58.5
COc1ccc(-c2ccc3cc(C(=O)O)ccc3c2)cc1C12CC3CC(CC(C3)C1)C2 [Adapalene] | 11.5
CCN1CCCC1CNC(=O)c1cc(S(N)(=O)=O)ccc1OC (centres undefined) [Sulpiride] | 100
CC12CC3CC(C)(C1)CC(N)(C3)C2 [Memantine Hydrochloride] | 109
C#C[C@]1(O)CC[C@H]2[C@@H]3CCC4=Cc5oncc5C[C@]4(C)[C@H]3CC[C@@]21C [Danazol] | 83.4
CCOc1ccc(Cc2nccc3cc(OCC)c(OCC)cc23)cc1OCC [Ethaverine hydrochloride] | 33
O=C(Nc1ccc([N+](=O)[O-])cc1Cl)c1cc(Cl)ccc1O [Niclosamide] | 5.97
CN1CCCN=C1/C=C/c1cccs1 [Pyrantel tartrate] | 105
CCN(CC)CCN[C@@H](C(=O)OCCC(C)C)c1ccccc1 [Camylofine chlorhydrate] | 102
CCC[C@@H]1C[C@@H](C(=O)N[C@@H]([C@H]2O[C@H](SC)[C@H](O)[C@@H](O)[C@H]2O)[C@@H](C)O)N(C)C1 [Lincomycin hydrochloride] | 88.1
CC(C)(C)NC(=O)[C@H]1CC[C@H]2[C@@H]3CC[C@H]4NC(=O)C=C[C@]4(C)[C@H]3CC[C@]12C [Finasteride] | 97.3
Nc1nc(N)c2nc(-c3ccccc3)c(N)nc2n1 [Triamterene] | 72
C=C1C(=O)O[C@H]2[C@H]1CC/C(C)=C/CC[C@@]1(C)O[C@@H]21 [Parthenolide] | 1.84
CCCCOc1ccc(C(=O)CCN2CCCCC2)cc1 [Dyclonine hydrochloride] | 85
CC(C)(C)CC(C)(C)c1ccc(OCCOCC[N+](C)(C)Cc2ccccc2)cc1 [Benzethonium chloride] | 14.7
Cn1nnc2c(C(N)=O)ncn2c1=O [Temozolomide] | 99.8
OC(CCN1CCCC1)(c1ccccc1)C1CCCCC1 (centres undefined) [Procyclidine hydrochloride] | 110
CC(C)NCC(O)COc1cccc2[nH]ccc12 (centres undefined) [Pindolol] | 110
CC(CN(C)C)CN1c2ccccc2CCc2ccccc21 (centres undefined) [Trimipramine maleate salt] | 88.3
CC(C)C(=O)c1c(C(C)C)nn2ccccc12 [Ibudilast] | 114
NCCc1ccc(O)c(O)c1 [Dopamine hydrochloride] | 70.3
CC1(C)O[C@@H]2C[C@H]3[C@@H]4C[C@H](F)C5=CC(=O)C=C[C@]5(C)[C@H]4[C@@H](O)C[C@]3(C)[C@]2(C(=O)CO)O1 [Flunisolide] | 127
CN(Cc1cc(Br)cc(Br)c1N)C1CCCCC1 [Bromhexine hydrochloride] | 89.6
C[C@H](CS)C(=O)N1CCC[C@H]1C(=O)O [Captopril] | 100

SMILES | HCT116-GFP viability [%]
Cc1c(Nc2ncccc2C(=O)O)cccc1C(F)(F)F [Flunixin meglumine] | 97
CC[C@H](c1ccc(O)cc1)[C@@H](CC)c1ccc(O)cc1 [Hexestrol] | 108
CCc1nn(CCCN2CCN(c3cccc(Cl)c3)CC2)c(=O)n1CCOc1ccccc1 [Nefazodone hydrochloride] | 85.6
CCCNC(C)(C)COC(=O)c1ccccc1 [Meprylcaine hydrochloride] | 94
CCC1(C)CC(=O)NC1=O (centres undefined) [Ethosuximide] | 101
NC1CCN(c2c(F)cc3c(=O)c(C(=O)O)cn(C4CC4)c3c2Cl)C1 (centres undefined) [Clinafloxacin] | 102
C[N+](C)(CCOc1ccccc1)Cc1ccccc1.O=C([O-])c1cc2ccccc2cc1O [Bephenium hydroxynaphthoate] | 89.1
CC(NCCc1ccc(O)cc1)C(O)c1ccc(O)cc1 (centres undefined) [Ritodrine hydrochloride] | 92.9
CCCc1nn(C)c2c(=O)[nH]c(-c3cc(S(=O)(=O)N4CCN(C)CC4)ccc3OCC)nc12 [Sildenafil] | 86
CCC(C)(C)C(=O)O[C@H]1C[C@@H](C)C=C2C=C[C@H](C)[C@H](CC[C@@H]3C[C@@H](O)CC(=O)O3)[C@H]21 [Simvastatin] | 99.9
CC(=O)Oc1ccc(C(c2ccc(OC(C)=O)cc2)c2ccccn2)cc1 [Bisacodyl] | 93
O=C1Nc2ccc(Cl)cc2[C@@](C#CC2CC2)(C(F)(F)F)O1 [Efavirenz] | 93.6
Nc1ccc(C(=O)O)c(O)c1 [4-aminosalicylic acid] | 112
CC[N+](C)(CC)CCC[n+]1c(-c2ccccc2)c2cc(N)ccc2c2ccc(N)cc21 [Propidium iodide] | 83
O=C(O)c1ccccc1Nc1cccc(C(F)(F)F)c1 [Flufenamic acid] | 104
O=C1O[C@H]([C@@H](O)CO)C(O)=C1O [Ascorbic acid] | 92.3
Clc1ccc(C(c2ccccc2Cl)C(Cl)Cl)cc1 (centres undefined) [Mitotane] | 101
CN(C)CCOC(=O)C(c1ccccc1)C1(O)CCCC1 (centres undefined) [Cyclopentolate hydrochloride] | 94.3
Nc1ccc(/N=N/c2ccccc2)c(N)n1 [Phenazopyridine hydrochloride] | 88.5
CCC(=O)O[C@]1(C(=O)SCF)[C@H](C)C[C@H]2[C@@H]3C[C@H](F)C4=CC(=O)C=C[C@]4(C)[C@@]3(F)[C@@H](O)C[C@@]21C [Fluticasone propionate] | 109
OCCN1CCN(CC/C=C2/c3ccccc3Sc3ccc(Cl)cc32)CC1 [Zuclopenthixol dihydrochloride] | 75.8
Nc1nc(/C(=C/CC(=O)O)C(=O)N[C@@H]2C(=O)N3C(C(=O)O)=CCS[C@H]23)cs1 [Ceftibuten] | 95.5
CCN(CC)CCNC(=O)c1cc(Br)c(N)cc1OC [Bromopride] | 90
OC(CCN1CCCCC1)(c1ccccc1)c1ccccc1 [Pridinol methanesulfonate salt] | 91.8
CCCCC(=O)N(Cc1ccc(-c2ccccc2-c2nnn[nH]2)cc1)[C@H](C(=O)O)C(C)C [Valsartan] | 84.6
CC(C)NNC(=O)c1ccncc1 [Iproniazide phosphate] | 100
O=C1c2cccc(O)c2C(=O)c2c(O)cccc21 [1,8-Dihydroxyanthraquinone] | 19.2

SMILES | HCT116-GFP viability [%]
O=C(O)CCC(=O)c1ccc(-c2ccccc2)cc1 [Fenbufen] | 85.3
N[C@@H](Cc1ccc(O)c(O)c1)C(=O)O [Levodopa] | 95.4
CN1CCN2c3ccccc3Cc3ccccc3C2C1 (centres undefined) [Mianserine hydrochloride] | 55.2
O=C(NC(Cc1cc(=O)[nH]c2ccccc12)C(=O)O)c1ccc(Cl)cc1 (centres undefined) [Rebamipide] | 110
Nc1ncn(C2OC(CO)C(O)C2O)c(=O)n1 (centres undefined) [Azacytidine-5] | 46.9
CC(C)(C)NC[C@H](O)COc1cccc2c1CCCC2=O [(-) -Levobunolol hydrochloride] | 90.6
C[N+](C)(C)CCOC(N)=O [Carbachol] | 99.6
C[C@H](CCC(=O)O)[C@H]1CC[C@H]2[C@@H]3C(=O)C[C@@H]4CC(=O)CC[C@]4(C)[C@H]3CC(=O)[C@]12C [Dehydrocholic acid] | 97.7
CCOC(=O)C1=C(C)NC(C)=C(C(=O)OC)C1c1cccc(Cl)c1Cl (centres undefined) [Felodipine] | 72.6
O=C1c2c(O)ccc(O)c2C(=O)c2c(NCCNCCO)ccc(NCCNCCO)c21 [Mitoxantrone dihydrochloride] | 1.9
COc1cc(N)c(Cl)cc1C(=O)NC1CCN(Cc2ccccc2)CC1 [Clebopride maleate] | 107
Nc1nc(N)nc(-c2cc(Cl)ccc2Cl)n1 [Irsogladine maleate] | 94.6
CCN1CCCC1CNC(=O)c1cc(S(=O)(=O)CC)c(N)cc1OC (centres undefined) [Amisulpride] | 96.3
CC(C)[C@H]1CC[C@H](C(=O)N[C@H](Cc2ccccc2)C(=O)O)CC1 [Nateglinide] | 99.1
CC(C)c1nc(CN(C)C(=O)N[C@H](C(=O)N[C@@H](Cc2ccccc2)C[C@H](O)[C@H](Cc2ccccc2)NC(=O)OCc2cncs2)C(C)C)cs1 [Ritonavir] | 99.1
COc1ccccc1OCCNCC(O)COc1cccc2[nH]c3ccccc3c12 (centres undefined) [Carvedilol] | 47.5
CC1CCc2cc(F)cc3c(=O)c(C(=O)O)cn1c23 (centres undefined) [Flumequine] | 87.9
O=C(NCC1CCCCN1)c1cc(OCC(F)(F)F)ccc1OCC(F)(F)F (centres undefined) [Flecainide acetate] | 104
CCCCOc1ccc(OCCCN2CCOCC2)cc1 [Pramoxine hydrochloride] | 98.4
CCOC(=O)C1=C(C)NC(C)=C(C(=O)OC)C1c1cccc([N+](=O)[O-])c1 (centres undefined) [Nitrendipine] | 100
CCn1cc(C(=O)O)c(=O)c2cc(F)c(N3CCNCC3)cc21 [Norfloxacin] | 91.9
O=C(c1ccc(OCCN2CCCCC2)cc1)c1c(-c2ccc(O)cc2)sc2cc(O)ccc12 [Raloxifene hydrochloride] | 81.4
CC(CN1c2ccccc2Sc2ccccc21)N(C)C (centres undefined) [Promethazine hydrochloride] | 99.3
NS(=O)(=O)c1cc2c(cc1C(F)(F)F)NC(Cc1ccccc1)NS2(=O)=O (centres undefined) [Bendroflumethiazide] | 94.7
CN(C)CCCC1(c2ccc(F)cc2)OCc2cc(C#N)ccc21 (centres undefined) [Citalopram Hydrobromide] | 92.8
